# The other results are listed elsewhere or left out.
# B1: PfulAvr4 2 (Pseudocercospora fuligena) (protein)
# chain: HHHHHHDYKDDDDKAKPIKPFACPPKDFTTTKCQGPVDCLYANPLSCLGYIQCVCDDDACSTATPYAKSCPTGLAWVEKLKRCDGIKKSACPKKMYEGS
# Experiments:
# Assay in all cases: glycan array binding signal (z-score within array); higher = stronger binding
# Settings in all cases: glycan notation: IUPAC condensed, linker removed
# [1] = biological target: Man(a1-2)Man(a1-3)[Man(a1-2)Man(a1-6)]Man(a1-6)[Man(a1-2)Man(a1-2)Man(a1-3)]Man
# How it was run: (§1)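 Arrays were curated from the Consortium for Functional Glycomics database, 3228 in total, and kept only where the protein sequence was available. Binding is expressed as a within-array Z-score. This score was averaged across arrays of the same protein sequence at different concentrations or buffers and across linkers, and negative values can be read as non-binding.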
# [2] = biological target: Man(a1-2)Man(a1-3)[Man(a1-2)Man(a1-6)]Man(a1-6)[Man(a1-2)Man(a1-2)Man(a1-3)]Man(b1-4)GlcNAc(b1-4)GlcNAc
# How it was run: as §1
# [3] = biological target: Man(a1-2)Man(a1-3)[Man(a1-6)]Man(a1-6)[Man(a1-2)Man(a1-3)]Man(b1-4)GlcNAc(b1-4)GlcNAc
# How it was run: as §1
# [4] = biological target: Man(a1-2)Man(a1-6)[Man(a1-3)]Man(a1-6)[Man(a1-2)Man(a1-2)Man(a1-3)]Man
# How it was run: as §1
# [5] = biological target: Man(a1-2)Man(a1-6)[Man(a1-3)]Man(a1-6)[Man(a1-2)Man(a1-2)Man(a1-3)]Man(b1-4)GlcNAc(b1-4)GlcNAc
# How it was run: as §1
# Man(a1-3)[Man(a1-6)]Man = biological target: Man(a1-3)[Man(a1-6)]Man
# How it was run: as §1
# [6] = biological target: Man(a1-3)[Man(a1-6)]Man(a1-6)[Man(a1-2)Man(a1-3)]Man(b1-4)GlcNAc(b1-4)GlcNAc
# How it was run: as §1
# [7] = biological target: Man(a1-3)[Man(a1-6)]Man(a1-6)[Man(a1-3)]Man
# How it was run: as §1
# [8] = biological target: Man(a1-3)[Man(a1-6)]Man(a1-6)[Man(a1-3)]Man(b1-4)GlcNAc(b1-4)GlcNAc
# How it was run: as §1
# [9] = biological target: Man(a1-3)[Man(a1-6)]Man(b1-4)GlcNAc(b1-4)GlcNAc
# How it was run: as §1
# [10] = biological target: Man(a1-3)[Man(a1-6)]Man(b1-4)GlcNAc(b1-4)[Fuc(a1-6)]GlcNAc
# How it was run: as §1
# Man(a1-6)Man = biological target: Man(a1-6)Man
# How it was run: as §1
# Man(b1-4)GlcNAc = biological target: Man(b1-4)GlcNAc
# How it was run: as §1
# MurNAc(b1-4)GlcNAc = biological target: MurNAc(b1-4)GlcNAc
# How it was run: as §1
# Neu5Ac(a2-3)Gal = biological target: Neu5Ac(a2-3)Gal
# How it was run: as §1
# [11] = biological target: Neu5Ac(a2-3)Gal(b1-3)GalNAc
# How it was run: as §1
# [12] = biological target: Neu5Ac(a2-3)Gal(b1-3)GalNAc(b1-3)Gal(a1-4)Gal(b1-4)Glc
# How it was run: as §1
# [13] = biological target: Neu5Ac(a2-3)Gal(b1-3)GalNAc(b1-4)Gal(b1-4)Glc
# How it was run: as §1
# [14] = biological target: Neu5Ac(a2-3)Gal(b1-3)GalNAc(b1-4)[Neu5Ac(a2-3)]Gal(b1-4)Glc
# How it was run: as §1
# [15] = biological target: Neu5Ac(a2-3)Gal(b1-3)GalNAc(b1-4)[Neu5Ac(a2-8)Neu5Ac(a2-3)]Gal(b1-4)Glc
# How it was run: as §1
# [16] = biological target: Neu5Ac(a2-3)Gal(b1-3)GalNAc6S
# How it was run: as §1
# [17] = biological target: Neu5Ac(a2-3)Gal(b1-3)GlcNAc
# How it was run: as §1
# [18] = biological target: Neu5Ac(a2-3)Gal(b1-3)GlcNAc(b1-2)Man
# How it was run: as §1
# [19] = biological target: Neu5Ac(a2-3)Gal(b1-3)GlcNAc(b1-2)Man(a1-3)[GlcNAc(b1-4)][Neu5Ac(a2-3)Gal(b1-3)GlcNAc(b1-2)Man(a1-6)]Man(b1-4)GlcNAc(b1-4)GlcNAc
# How it was run: as §1
# [20] = biological target: Neu5Ac(a2-3)Gal(b1-3)GlcNAc(b1-2)Man(a1-3)[Neu5Ac(a2-3)Gal(b1-3)GlcNAc(b1-2)Man(a1-6)]Man(b1-4)GlcNAc(b1-4)GlcNAc
# How it was run: as §1
# [21] = biological target: Neu5Ac(a2-3)Gal(b1-3)GlcNAc(b1-2)[Neu5Ac(a2-3)Gal(b1-3)GlcNAc(b1-4)]Man(a1-6)[Neu5Ac(a2-3)Gal(b1-3)GlcNAc(b1-2)Man(a1-3)]Man(b1-4)GlcNAc(b1-4)GlcNAc
# How it was run: as §1
# [22] = biological target: Neu5Ac(a2-3)Gal(b1-3)GlcNAc(b1-3)Gal(b1-3)GlcNAc
# How it was run: as §1
# [23] = biological target: Neu5Ac(a2-3)Gal(b1-3)GlcNAc(b1-3)Gal(b1-4)GlcNAc
# How it was run: as §1
# [24] = biological target: Neu5Ac(a2-3)Gal(b1-3)GlcNAc(b1-3)GalNAc
# How it was run: as §1
# [25] = biological target: Neu5Ac(a2-3)Gal(b1-3)GlcNAc(b1-6)GalNAc
# How it was run: as §1
# [26] = biological target: Neu5Ac(a2-3)Gal(b1-3)GlcNAc6S
# How it was run: as §1
# [27] = biological target: Neu5Ac(a2-3)Gal(b1-3)[Fuc(a1-4)]GlcNAc
# How it was run: as §1
# [28] = biological target: Neu5Ac(a2-3)Gal(b1-3)[Fuc(a1-4)]GlcNAc(b1-3)Gal(b1-3)[Fuc(a1-4)]GlcNAc
# How it was run: as §1
# [29] = biological target: Neu5Ac(a2-3)Gal(b1-3)[Fuc(a1-4)]GlcNAc(b1-3)Gal(b1-4)[Fuc(a1-3)]GlcNAc
# How it was run: as §1
# [30] = biological target: Neu5Ac(a2-3)Gal(b1-3)[GlcNAc(b1-6)]GalNAc
# How it was run: as §1
# [31] = biological target: Neu5Ac(a2-3)Gal(b1-3)[Neu5Ac(a2-6)]GalNAc
# How it was run: as §1
# [32] = biological target: Neu5Ac(a2-3)Gal(b1-3)[Neu5Ac(a2-6)]GlcNAc(b1-3)[Fuc(a1-3)[Gal(b1-4)]GlcNAc(b1-6)]Gal(b1-4)Glc
# How it was run: as §1
# [33] = biological target: Neu5Ac(a2-3)Gal(b1-3)]Neu5Ac(a2-3)Gal(b1-4)]GlcNAc
# How it was run: as §1
# Neu5Ac(a2-3)Gal(b1-4)Glc = biological target: Neu5Ac(a2-3)Gal(b1-4)Glc
# How it was run: as §1
# [34] = biological target: Neu5Ac(a2-3)Gal(b1-4)GlcNAc
# How it was run: as §1
# [35] = biological target: Neu5Ac(a2-3)Gal(b1-4)GlcNAc(b1-2)Man
# How it was run: as §1
# [36] = biological target: Neu5Ac(a2-3)Gal(b1-4)GlcNAc(b1-2)Man(a1-3)[GlcNAc(b1-4)][Neu5Ac(a2-3)Gal(b1-4)GlcNAc(b1-2)Man(a1-6)]Man(b1-4)GlcNAc(b1-4)GlcNAc
# How it was run: as §1
# [37] = biological target: Neu5Ac(a2-3)Gal(b1-4)GlcNAc(b1-2)Man(a1-3)[Neu5Ac(a2-3)Gal(b1-4)GlcNAc(b1-2)Man(a1-6)]Man(b1-4)GlcNAc(b1-4)GlcNAc
# How it was run: as §1
# [38] = biological target: Neu5Ac(a2-3)Gal(b1-4)GlcNAc(b1-2)Man(a1-3)[Neu5Ac(a2-3)Gal(b1-4)GlcNAc(b1-2)Man(a1-6)]Man(b1-4)GlcNAc(b1-4)[Fuc(a1-6)]GlcNAc
# How it was run: as §1
# [39] = biological target: Neu5Ac(a2-3)Gal(b1-4)GlcNAc(b1-2)Man(a1-3)[Neu5Ac(a2-6)Gal(b1-4)GlcNAc(b1-2)Man(a1-6)]Man(b1-4)GlcNAc(b1-4)GlcNAc
# How it was run: as §1
binder,measurement,setting,value
B1,glycan array binding signal (z-score),[1],-0.359
same,glycan array binding signal (z-score),[2],-0.214
same,glycan array binding signal (z-score),[3],-0.32
same,glycan array binding signal (z-score),[4],-0.389
same,glycan array binding signal (z-score),[5],-0.282
same,glycan array binding signal (z-score),Man(a1-3)[Man(a1-6)]Man,-0.108
same,glycan array binding signal (z-score),[6],-0.104
same,glycan array binding signal (z-score),[7],0.198
same,glycan array binding signal (z-score),[8],-0.196
same,glycan array binding signal (z-score),[9],-0.311
same,glycan array binding signal (z-score),[10],-0.353
same,glycan array binding signal (z-score),Man(a1-6)Man,0.055
same,glycan array binding signal (z-score),Man(b1-4)GlcNAc,0.119
same,glycan array binding signal (z-score),MurNAc(b1-4)GlcNAc,0.075
same,glycan array binding signal (z-score),Neu5Ac(a2-3)Gal,-0.39
same,glycan array binding signal (z-score),[11],-0.292
same,glycan array binding signal (z-score),[12],-0.326
same,glycan array binding signal (z-score),[13],-0.416
same,glycan array binding signal (z-score),[14],-0.254
same,glycan array binding signal (z-score),[15],-0.189
same,glycan array binding signal (z-score),[16],-0.311
same,glycan array binding signal (z-score),[17],-0.248
same,glycan array binding signal (z-score),[18],-0.38
same,glycan array binding signal (z-score),[19],-0.239
same,glycan array binding signal (z-score),[20],7.16
same,glycan array binding signal (z-score),[21],0.392
same,glycan array binding signal (z-score),[22],-0.261
same,glycan array binding signal (z-score),[23],-0.372
same,glycan array binding signal (z-score),[24],-0.01
same,glycan array binding signal (z-score),[25],0.055
same,glycan array binding signal (z-score),[26],0.342
same,glycan array binding signal (z-score),[27],-0.258
same,glycan array binding signal (z-score),[28],-0.212
same,glycan array binding signal (z-score),[29],-0.285
same,glycan array binding signal (z-score),[30],-0.034
same,glycan array binding signal (z-score),[31],0.084
same,glycan array binding signal (z-score),[32],-0.257
same,glycan array binding signal (z-score),[33],-0.167
same,glycan array binding signal (z-score),Neu5Ac(a2-3)Gal(b1-4)Glc,-0.243
same,glycan array binding signal (z-score),[34],-0.07
same,glycan array binding signal (z-score),[35],5.08
same,glycan array binding signal (z-score),[36],-0.297
same,glycan array binding signal (z-score),[37],-0.322
same,glycan array binding signal (z-score),[38],-0.338
same,glycan array binding signal (z-score),[39],1.66

# Source: the supplement of paper PMC8728848
